Values marked as one replicate rest on one cluster of the flow cell; about a third of the high ones do not repeat.
These sequences were tested on ATP (assay: switch fluorescence ratio, 500 uM ATP over buffer (Cy3 cluster intensity, sum of 5 cycles each) (fold (ratio)); higher = stronger signal-on switching upon ATP binding; sequences stand for … in TCGTCGGCAGCGTCAGATGTGTATAAGAGACAGTTTTTTTTTTTTTTTTTTTTTTTTT…TC). Conditions: aptamer strand: ATP DNA aptamer (quencher-CACCTGGGGGAGTATTGCGGAGGAAGG + anchor), 100 nM annealed; ATP concentration: 500 uM; one replicate.
Outline: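 Imaging in selection buffer was followed by imaging after 15 min with 500 uM ATP at 22 °C, for Cy3-labelled switching-strand clusters annealed to 100 nM quencher-labelled ATP aptamer on a modified Illumina MiSeq flow-cell. Five of these buffer/ATP cycles ran, separated by NaOH stripping and re-annealing. The fluorescence ratio per cluster is summed target-cycle over summed buffer-cycle Cy3 intensity, averaged per switch-domain sequence; clusters outside 100-1000 RFU were removed.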
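Further: ATP exposure 15 min at 22 °C before imaging.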

Row | Sequence | switch fluorescence ratio
1 | GTTTATGTCG | 0.998
2 | GTTTCAAAAC | 0.994
3 | GTTTCACATA | 0.98
4 | GTTTCCCCGC | 3.82
5 | GTTTCCTTTT | 1.01
6 | GTTTCGGGAA | 0.965
7 | GTTTCTGTGA | 0.977
8 | GTTTCTTTAG | 0.995
9 | GTTTGAAAGC | 0.983
10 | GTTTGAGGAC | 0.959
11 | GTTTGCAGAA | 1.02
12 | GTTTGCCGGC | 1.03
13 | GTTTGCCGTG | 1.04
14 | GTTTGCTGTG | 1.03
15 | GTTTGGAGTT | 0.975
16 | GTTTGGATTT | 0.99
17 | GTTTGGTAAG | 0.962
18 | GTTTGTACGG | 1.04
19 | GTTTGTTCTC | 1.03
20 | GTTTTAGCGT | 1
21 | GTTTTATCAA | 0.975
22 | GTTTTCCAGT | 0.982
23 | GTTTTCCATC | 1.01
24 | GTTTTCCGA | 1.02
25 | GTTTTCGGG | 0.997

Row | Sequence | switch fluorescence ratio
26 | GTTTTCTGTG | 0.941
27 | GTTTTTAACC | 0.978
28 | GTTTTTTATG | 1.02
29 | TAAAAAACG | 1.1
30 | TAAAAACGAT | 1.02
31 | TAAAAAG | 0.982
32 | TAAAAAGG | 0.998
33 | TAAAAAGGAG | 0.954
34 | TAAAAATGAT | 1.01
35 | TAAAACACGG | 1.01
36 | TAAAACTTTC | 1.02
37 | TAAAAGAATC | 1.01
38 | TAAAAGCCCC | 1.11
39 | TAAAATTGAC | 1.01
40 | TAAACAATCG | 1.46
41 | TAAACAGCGG | 1.02
42 | TAAACCCTCT | 1.33
43 | TAAACGCTCC | 1.45
44 | TAAACGTCGG | 0.991
45 | TAAAGACCAG | 1.04
46 | TAAAGAGCCA | 0.982
47 | TAAAGCCCGA | 1.01
48 | TAAAGCTGTT | 1.07
49 | TAAAGGACTC | 0.989
50 | TAAAGGAGCT | 1.04

Row | Sequence | switch fluorescence ratio
51 | TAAAGGGCCA | 1.33
52 | TAAAGTAGGT | 0.988
53 | TAAATAGTGA | 1.01
54 | TAAATATATT | 0.938
55 | TAAATATCTT | 0.983
56 | TAAATGAGAT | 0.977
57 | TAAATGCTCT | 1
58 | TAAATGTGTG | 0.986
59 | TAAATTTATG | 0.983
60 | TAACAATGAG | 0.992
61 | TAACACTAAT | 1.04
62 | TAACACTACG | 1.46
63 | TAACAGGGAC | 1.01
64 | TAACATGATG | 0.99
65 | TAACCCGAGG | 1.03
66 | TAACCCGTTT | 1
67 | TAACCGCTGA | 1.29
68 | TAACGACGCA | 3.97
69 | TAACGGCTGT | 0.935
70 | TAACGGGTAT | 0.991
71 | TAACGTGGAC | 1.43
72 | TAACGTTCCG | 1.08
73 | TAACGTTGTA | 1.02
74 | TAACTCGACT | 1.06
75 | TAACTCGGAC | 1.1

Row | Sequence | switch fluorescence ratio
76 | TAACTCGGTT | 0.99
77 | TAACTTACCG | 1.17
78 | TAACTTCTGC | 0.962
79 | TAACTTGTTT | 1.01
80 | TAAGAAGTCA | 1.03
81 | TAAGAATGTG | 0.974
82 | TAAGACTGAA | 0.953
83 | TAAGAGAAGA | 0.981
84 | TAAGAGCCTA | 1.01
85 | TAAGAGGACC | 0.974
86 | TAAGAGTCTC | 0.972
87 | TAAGAGTTGT | 1.01
88 | TAAGATAGGT | 1.12
89 | TAAGATATCG | 1.02
90 | TAAGATGACC | 0.923
91 | TAAGATGAG | 0.989
92 | TAAGATGGTT | 0.985
93 | TAAGCAAGCG | 1.59
94 | TAAGCATGAT | 1.01
95 | TAAGCCAACG | 1.09
96 | TAAGCCCGGC | 0.904
97 | TAAGCCCGGG | 1.08
98 | TAAGCCGGTT | 0.963
99 | TAAGCTATC | 1.13
100 | TAAGGAAGAG | 1.05

Source: the supplement of paper PMC10126150
